Source: PubChem BioAssay AID1030 (National Center for Advancing Translational Sciences (NCATS), 2008)
Out of some 220,000 compounds screened, about 16,000 (7.3%) were called active. The inconclusive results got no clear call from the source; some entries with a clear call stand among them for comparison. Calls come from the whole dose curve; as a rule, active = well fitted inhibition curve with a large enough effect (not every such curve was filed as active); inconclusive = small, poorly fitted or top-dose-only effect, or another doubt; inactive = no such curve, though single readings can be large or run the other way. Where the call is inconclusive, the potency comes from a doubtful curve fit.

Target: Aldehyde dehydrogenase 1A1 (Homo sapiens) (UniProt P00352)
UniProt P00352, sequence (P00352 whole entry, looked up): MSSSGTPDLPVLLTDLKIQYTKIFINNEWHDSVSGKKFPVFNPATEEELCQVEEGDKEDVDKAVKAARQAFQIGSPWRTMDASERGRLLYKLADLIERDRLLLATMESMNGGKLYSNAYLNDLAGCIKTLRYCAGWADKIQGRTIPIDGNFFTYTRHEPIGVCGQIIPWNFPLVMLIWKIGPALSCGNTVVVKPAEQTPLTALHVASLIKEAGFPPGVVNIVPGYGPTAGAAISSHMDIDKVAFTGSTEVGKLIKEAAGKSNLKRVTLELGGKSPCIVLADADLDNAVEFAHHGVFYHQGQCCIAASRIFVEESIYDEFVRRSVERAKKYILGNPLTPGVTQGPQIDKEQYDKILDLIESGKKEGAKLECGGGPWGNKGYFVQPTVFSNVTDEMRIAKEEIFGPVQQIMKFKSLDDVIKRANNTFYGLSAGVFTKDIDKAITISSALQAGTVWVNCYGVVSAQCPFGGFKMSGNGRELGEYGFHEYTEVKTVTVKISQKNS
Assay: qHTS Assay for Inhibitors of Aldehyde Dehydrogenase 1 (ALDH1A1);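 for activity, negative = inhibition: plate controls were no enzyme wells and a reference inhibitor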
Conditions: Purified ALDH1A1, NADH fluorescence, propionaldehyde substrate; series mostly up to 75.3 µM; activity, negative = inhibition: at the top concentration
Potency is the fitted concentration of half-maximal effect; tags give direction and shape of the fitted curve.

activity, negative = inhibition, inactive:
Nc1nc(SCCO)[nH]c(=O)c1NC(=O)c1ccccc1F 12.6%
COc1ccc(/C=C(/NC(=O)c2ccc(OC)c(OC)c2)C(=O)NCCc2c[nH]c3ccccc23)cc1 1.74%
O=C(Nc1ccccc1N1CCCC1)c1cccc(Cl)c1Cl 2.56%
O=C(N/N=C1/CCSC1)c1cc(Br)ccc1O 2.5%
CCCC(=O)c1ccc(N2CCC(C)CC2)c(F)c1 4.11%
CCOC(=O)c1nnn(-c2ccc(OC)cc2)c1N 11.9%
COc1ccc(C(C)NC(=O)C2CCCO2)cc1OC (stereo not drawn) 1.14%
CCOc1ccccc1NC(=O)Nc1cccc(S(N)(=O)=O)c1 3.39%
CC1CC(C)(C)NC(=S)N1CC(=O)NCc1ccc(F)cc1 (stereo not drawn) 6.56%
CC(NC(=S)Nc1cccc(C(F)(F)F)c1)C(C)(C)C (stereo not drawn) 17.3%
CC1CCN(c2c(NCc3ccc(C(=O)NCc4cccnc4)cc3)c(=O)c2=O)CC1 13.5%
CNc1nc(-c2ccccc2CN(C)C)nc2ccccc12 12.3%
CN(C)C(=O)c1cc(C(=O)c2ccc(C(F)(F)F)cc2F)c[nH]1 -2.18%
COc1ccc(CNC(=O)C(=O)NCC(c2ccco2)N2CCOCC2)cc1 (stereo not drawn) 0.449%

Potency, active:
Nc1ccc(N2CCCCC2)cc1N1CCCCC1 3.98 µM
O=C1CN(C(=O)COC(=O)CCSc2ccccc2Cl)c2ccccc2N1 14.1 µM
Cc1cccc(NC(=O)CSc2nnc(CNC(=O)c3ccc(S(=O)(=O)N(C)C)cc3)n2-c2ccccc2)c1 7.08 µM
COc1ccc(NC(=O)c2sc(=S)[nH]c2N)cc1 10 µM
Cc1cc(/C=N\NC(=O)COc2cccc3cccnc23)c(C)n1-c1ccccc1 14.1 µM
O=C(NNS(=O)(=O)c1ccc(C(=O)NC2CCCC2)cc1)c1ccncc1 2.82 µM
CC1(C)CNC(=O)c2sc(NC(=O)c3ccccc3Cl)nc2C1 12.6 µM
O=C(c1cn(-c2ccccc2)nc1-c1cccc(Br)c1)N1CCOCC1 25.1 µM

Potency, inconclusive:
COc1cc(/C=C2/N=C(C3CCCCC3)OC2=O)cc(OC)c1OC 28.2 µM [inhibitor, single point]
Cc1ccc(C2(c3noc(CN(C)Cc4cccnc4)n3)CCCC2)cc1 15 µM [inhibitor, partial curve, poor fit]
CCN1CCN(C(=O)/C=C/c2ccc([N+](=O)[O-])cc2)CC1 37.7 µM [inhibitor, partial curve, poor fit]
O=c1cc(-c2cc3ccccc3oc2=O)c2ccc(O)cc2o1 39.8 µM [inhibitor, single point]
FC(F)(F)c1ccc(Cl)c(-n2c(-c3cc(C4CC4)[nH]n3)n[nH]c2=S)c1 35.5 µM [inhibitor, single point]
Fc1ccc(Nc2nc(-c3ccoc3)nc3ccccc23)cc1 39.8 µM [inhibitor, single point]
Cc1ccccc1NC(=O)c1ccc(-c2ccc(Cl)cc2Cl)o1 39.8 µM [inhibitor, single point]
O=Cc1cccc(Br)c1 39.8 µM [inhibitor, single point]
O=c1cc(CN2CCOCC2)c2c(ccc3ccccc32)o1 17.8 µM [inhibitor, single point]
COc1ccc(C(=O)Nc2cccc(C(=O)NCc3ccco3)c2)cc1 39.8 µM [inhibitor, single point]
COc1cc2c3nnc(-c4ccc(F)cc4)c-3cn(Cc3ccccc3)c2cc1OC 9.46 µM [inhibitor, partial curve]
FC(F)(F)c1ccccc1-c1nc(NCc2cccs2)c2ccccc2n1 39.8 µM [inhibitor, single point]
CC(=O)Nc1cccc(-c2nnc(SCc3ccccc3C#N)n2C)c1 39.8 µM [inhibitor, single point]
Fc1ccc(NC(=S)Nc2ccc3nccnc3c2)cc1 37.7 µM [inhibitor, single point]
CCC1=NN2C(=N)/C(=C/c3cc(C)n(-c4ccccc4)c3C)C(=O)N=C2S1 22.4 µM [inhibitor, partial curve]
CCOc1ccc(CCNC(=O)COC(=O)/C=C/c2ccc(OCC#N)c(OC)c2)cc1OCC 39.8 µM [inhibitor, single point]
COC(=O)c1ccccc1NC(=O)c1cnn2c(C(F)F)cc(C3CC3)nc12 39.8 µM [inhibitor, single point]
Cc1ccccc1-n1cnnc1SCC(=O)Nc1cccnc1Cl 31.6 µM [inhibitor, single point]
COCC(C)n1c(C)cc(C(=O)COc2ccc(C)nc2[N+](=O)[O-])c1C (stereo not drawn) 35.5 µM [inhibitor, single point]
O=C(CN1C(=O)COc2ccccc21)N(Cc1ccccc1)Cc1ccccn1 39.8 µM [inhibitor, single point]
O=C1N=C(N2CCOCC2)S/C1=C1\C(=O)N(Cc2ccccc2)c2ccc(Br)cc21 28.2 µM [inhibitor, partial curve]
CC1(C)CC(=O)C2=C(C1)OC(N)=C(C#N)C2CCc1ccccc1 (stereo not drawn) 39.8 µM [inhibitor, single point]
O=C(NCc1ccccn1)C(=O)C1C(=O)Nc2ccccc21 (stereo not drawn) 0.224 µM [inhibitor, full curve]
NC(=O)c1cc2ccc(O)cc2oc1=Nc1ccccc1 31.6 µM [inhibitor, partial curve]
C=CCNC(=O)NC(=O)COC(=O)/C=C/c1cccc([N+](=O)[O-])c1 44.7 µM [inhibitor, single point]
Cc1noc(C)c1S(=O)(=O)N(CC(=O)N1CCCCCC1)c1ccc(C(C)C)cc1 2 µM [inhibitor, full curve, poor fit]
